From PubChem BioAssay AID1508642 (National Center for Advancing Translational Sciences (NCATS), 2021)
Out of some 43,000 compounds screened, about 200 (0.47%) were called active. Roughly 12% stayed inconclusive and do not appear here. The call rests on the fitted dose curve; in most records, active means well fitted cell-killing curve with a large enough effect; inconclusive means small, poorly fitted or top-dose-only effect, or effect the other way; inactive means flat fitted curve, though single readings scatter. This is one part of the list.

Test: Cell viability qHTS assay in S16 Pmp22-F2sN cells; further: nearly all actives have a fitted effect of over 65% in size
Details: S16 Pmp22-F2sN Schwann cells viability, CellTiter-Glo, 24 h; series mostly up to 57.5 µM; activity change, negative = cytotoxicity: at the top concentration
Summary of the method: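 Used to flag compounds lowering reporter output through toxicity, this quantitative HTS measures ATP-based CellTiter-Glo luminescence in S16 Pmp22-F2sN Schwann cells after 24 h compound exposure at 37C.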
On the % scale 0 is the no-effect control and ±100 the full control effect; potency means the concentration at half of the fitted maximal effect.

Row | Compound | activity change, negative = cytotoxicity | Potency
1 | Cc1ccc(CNC(=O)c2cnn(-c3ccc(F)cc3F)c2C2CCN(C(=O)OC(C)(C)C)CC2)cc1 | inactive: -11.4% | 
2 | CCCOc1ccc(C2C(=O)N(C3CCCCC3)CC(=O)N2CCC2=CCCCC2)cc1OC (stereo unspecified) | inactive: 5.14% | 
3 | COc1ccc(NS(=O)(=O)c2ccc3c(c2)n(C)c(=O)c(=O)n3C)cc1Cl | inactive: -14.5% | 
4 | COc1ccc(-n2cc(C(=O)Nc3ccccc3C#N)c3ccccc3c2=O)cc1 | inactive: -1.17% | 
5 | CNc1nc(Oc2ccc(=O)[nH]n2)nc(N2CCOCC2)n1 | inactive: 1.73% | 
6 | COc1ccccc1NC(=O)C1=C(C)Nc2ncnn2C1c1sccc1C (stereo unspecified) | inactive: 3.02% | 
7 | Cc1ccccc1CNC(=O)Cn1cc2c(n1)-c1c(oc(C(=O)N3CCCC3)c1C)CC2 | inactive: 0.202% | 
8 | COc1ccc(OC)c(CNC(=O)CCC(=O)N2Cc3ccccc3Oc3ncccc32)c1 | inactive: -16.3% | 
9 | COc1ccc2nc(NC(=O)c3nc(SCc4cccc(C)c4)ncc3Cl)sc2c1 | inactive: 3.67% | 
10 | COc1ccc(N2CC(NC(=O)C3CCCC3)CC2=O)cc1 (stereo unspecified) | inactive: 0.402% | 
11 | O=C(c1cccc([N+](=O)[O-])c1)N1CCN(CCc2ccncc2)CC1 | inactive: -2.56% | 
12 | COc1cccc(-n2cc(C(=O)Nc3ccccc3C(N)=O)c3ccccc3c2=O)c1 | inactive: 5.52% | 
13 | Cc1nc(SCCOc2ccc(Cl)cc2)[nH]c(=O)c1Cc1ccccc1 | inactive: 17.5% | 
14 | CCOc1ccc(NC(=O)Cn2c(=O)n(Cc3ccccc3)c(=O)c3c4c(sc32)CN(C(C)=O)CC4)cc1 | inactive: -3.26% | 
15 | Cc1ccc(NC(=O)CN2C(=O)COc3ccc(S(=O)(=O)N4CCOCC4)cc32)c(Cl)c1 | inactive: 11.7% | 
16 | C=Cc1ccc(Cn2c(C(=O)OC)cc3sc(C)cc32)cc1 | inactive: -4.97% | 
17 | COc1cccc(NC(=O)CC2Oc3ccccc3NC2=O)c1 (stereo unspecified) | inactive: 15.4% | 
18 | CC(=O)c1cccc(Nc2ncnc3c2cnn3-c2cccc(Cl)c2)c1 | inactive: 11.8% | 
19 | COc1cccc(NC(=O)c2oc3ccc(S(=O)(=O)N4CCOCC4)cc3c2C)c1 | inactive: -21.9% | 
20 | CC(C)OCCCNC(=O)CN1C(=O)CSc2ccc(S(=O)(=O)N3CCOCC3)cc21 | inactive: 5.85% | 
21 | CC1CCCCN1S(=O)(=O)c1ccc2[nH]c(=O)cc(C(=O)NCCc3ccc(Cl)cc3)c2c1 (stereo unspecified) | inactive: 5.28% | 
22 | CCc1ccc(Nc2nc3c(S(=O)(=O)c4cccc(Cl)c4)nnn3c3ccsc23)cc1 | inactive: 2.49% | 
23 | CC(=O)Nc1c(C(=O)Nc2ccccc2F)oc2ccccc12 | inactive: -1.31% | 
24 | Cc1ccc(Cl)cc1N1CCN(C(=O)C(C)n2ncn3cccc3c2=O)CC1 (stereo unspecified) | inactive: -17.7% | 

Row | Compound | activity change, negative = cytotoxicity | Potency
25 | CCCCN(CCCC)C(=O)c1cc2c(=O)n3ccccc3nc2s1 | inactive: -1.05% | 
26 | CCNC(=O)c1c(NC(=O)c2cc(=O)c3ccc(C)c(C)c3o2)sc2c1CCCC2 | inactive: 8.19% | 
27 | Cc1cccc(N2CCN(S(=O)(=O)c3ccc(F)c(C(=O)Nc4cccc(Cl)c4C)c3)CC2C)c1 (stereo unspecified) | inactive: -1.75% | 
28 | Cc1cc(C)c(S(=O)(=O)NCC(c2ccco2)N2CCN(c3ccccc3)CC2)c(C)c1 (stereo unspecified) | inactive: -12% | 
29 | Cc1ccc(-n2nc3c(=O)n(CCCC(=O)NCc4ccc(F)cc4)nc(C)c3c2C)cc1 | inactive: 0.571% | 
30 | Cc1cc(C(F)(F)F)c2c(N)c(C(=O)Nc3c(Cl)cccc3Cl)sc2n1 | inactive: -28.5% | 
31 | O=C(CN1CCN(Cc2ccc(F)cc2)C1=O)NCc1ccccc1 | inactive: 2.63% | 
32 | Cc1ccc2c(c1)-c1onc(C(=O)N3CCN(c4cccc(C)c4C)CC3)c1CO2 | inactive: 10.1% | 
33 | Cc1nn(-c2ccccc2)c2c1cc1c(=O)[nH]c(=O)nc-1n2-c1cccc(C(F)(F)F)c1 | inactive: -0.185% | 
34 | COc1ccc(Nc2ncnc3c2cnn3C)c(OC)c1 | inactive: -0.218% | 
35 | CCCC12CN3CC(C)(CN(C1)C3c1ccc(CC)cc1)C2=O (stereo unspecified) | inactive: 12.4% | 
36 | CCc1ccc(OCC(=O)NCC(c2ccc(Cl)cc2)N2CCOCC2)cc1 (stereo unspecified) | inactive: -6.82% | 
37 | CC(C)c1ccc(NC(=O)c2cc3c(=O)oc4ccccc4c3s2)cc1 | inactive: 10.1% | 
38 | CCOc1ccc(CCNC(=O)c2cc3c(=O)n(C)c4ccccc4c3s2)cc1OCC | inactive: 13.6% | 
39 | COc1ccccc1NC(=O)c1sc2cccc(Cl)c2c1Cl | inactive: 0.26% | 
40 | COc1ccc(N2CCN(C(CNC(=O)C(=O)NCc3ccc(C)cc3)c3cccnc3)CC2)cc1 (stereo unspecified) | inactive: -24.9% | 
41 | Cc1ccccc1-c1nc(NC(=O)CSc2ncnc3sc4c(c23)CCCC4)ns1 | inactive: -0.535% | 
42 | O=C(CC(c1cccs1)N1Cc2ccccc2C1=O)Nc1ccccc1 (stereo unspecified) | inactive: -19.1% | 
43 | CCN1CCN(C(=O)Cn2ncc3c4ccccc4n(Cc4ccccc4F)c3c2=O)CC1 | inactive: -2.35% | 
44 | Cc1cccc(N2CCN(C(c3ccc(F)cc3)c3nnc(-c4ccccc4)o3)CC2)c1C (stereo unspecified) | inactive: -1.05% | 
45 | COc1cccc(N2CCN(C(=O)c3cnc4c(C)cccn4c3=O)CC2)c1 | inactive: -10.9% | 
46 | CCCNC(=O)CCn1nc(-c2ccc(C)cc2)c2ccccc2c1=O | inactive: -17.6% | 
47 | COc1ccc(-c2nc(SCC(=O)NCC3CCCO3)c(-c3ccc(Cl)cc3)[nH]2)cc1 (stereo unspecified) | inactive: -1.91% | 
48 | Cc1c(Cl)ccc2sc(NC(=O)c3ccc(S(=O)(=O)N4CCCC4)cc3)nc12 | inactive: 8.25% | 

Row | Compound | activity change, negative = cytotoxicity | Potency
49 | Cc1ccc2ncc(C(=O)Nc3cccc(C(F)(F)F)c3)c(=O)n2c1 | inactive: 4.6% | 
50 | COc1ccc(S(=O)(=O)N2CCC(c3nnc(-c4ccccc4C)o3)CC2)c(OC)c1 | inactive: 4.68% | 
51 | COc1cc(C(=O)Nc2cccc(OCc3cc(=O)n4c(C)csc4n3)c2)cc(OC)c1OC | inactive: 17.7% | 
52 | Cc1nn2c(=O)cc(COC(=O)c3ccccc3NC(=O)C(C)C)nc2s1 | inactive: 19.2% | 
53 | COc1cccc(-n2cc(C(=O)Oc3ccc(F)cc3)c3ccccc3c2=O)c1 | inactive: 5.78% | 
54 | Cc1ccc(S(=O)(=O)c2c(Nc3ccccc3)sc(C(=O)c3ccc4c(c3)OCO4)c2N)cc1 | inactive: 1.97% | 
55 | CCN(C(=O)c1cc(S(=O)(=O)N2CCOCC2)cn1C)c1ccc(OC)cc1 | inactive: -0.301% | 
56 | Cc1ccc(CN2C(=O)c3ccccc3S(=O)(=O)c3ccc(C(=O)OCC4CCCO4)cc32)cc1 (stereo unspecified) | inactive: 22.1% | 
57 | CCCC(=O)Oc1c(Sc2ccc(Cl)cc2)c(C)nn1-c1ccccc1 | inactive: -17% | 
58 | CCOc1nc(NC(=O)NS(=O)(=O)Oc2ccc(Cl)cc2)nc(-c2ccccc2)n1 | inactive: -1.78% | 
59 | Cn1c(SCC(=O)Nc2ccc(F)cc2)nc2c([nH]c3ccccc32)c1=O | inactive: -10.3% | 
60 | CN(C)C(=O)c1ccc2c(c1)N(CC(=O)NCc1ccc(F)cc1)C(=O)C1CCCCN21 (stereo unspecified) | inactive: 7.35% | 
61 | COc1cccc(-c2cc(C(=O)NCc3ccccc3)[nH]n2)c1 | inactive: -9.79% | 
62 | COc1cc(OC)cc(-c2nnc(SCC(=O)N3CCC(C)CC3)o2)c1 | inactive: 5.41% | 
63 | COc1ccc(CCNC(=O)CCn2c(=O)c3ccccc3n(CC(=O)Nc3cccc(C)c3)c2=O)cc1OC | inactive: 7.63% | 
64 | CC(=O)c1ccc(NC(=O)Cn2c(-n3nc(C)cc3C)nc(C)cc2=O)cc1 | inactive: -4.16% | 
65 | Cc1ccc2c(c1)cc1c(=O)n(CC(=O)NCc3ccco3)nc(C)n12 | inactive: 4.66% | 
66 | Cc1cccn2c(=O)c3cc(C(=O)NCCc4ccc(S(N)(=O)=O)cc4)n(C)c3nc12 | inactive: 13.5% | 
67 | COc1ccc(OC)c(C2C(C(N)=O)=C(C)Nc3nc(-c4cccc(Cl)c4)nn32)c1 (stereo unspecified) | inactive: -19.8% | 
68 | CC(C)(C)c1ccc(OCC(=O)N(Cc2ccco2)Cc2ccccc2F)cc1 | inactive: -17.1% | 
69 | CCc1ccccc1N1CC(c2nc3ccccc3n2CC(C)C)CC1=O (stereo unspecified) | inactive: 22.7% | 
70 | Cc1ccc(C)c(S(=O)(=O)c2nnn3c2nc(N2CCCC2)c2sccc23)c1 | inactive: -10.6% | 
71 | O=C(Cn1ncc2c3ccccc3n(Cc3ccc(Cl)cc3)c2c1=O)NCCCc1ccccc1 | inactive: -2.96% | 
72 | CC(C)c1ccc(Nc2cc(C(=O)NCCc3ccccc3)c3ccccc3n2)cc1 | inactive: -3.44% | 

Row | Compound | activity change, negative = cytotoxicity | Potency
73 | CC(=O)Nc1ccc(-n2cc3c(c2-c2ccc(C)cc2)c(=O)n(C)c(=O)n3C)cc1 | inactive: -19.8% | 
74 | Cc1oc(-c2ccc(C(=O)Nc3ccc(F)cc3F)cc2)nc1COc1ccccc1 | inactive: 2.77% | 
75 | CCCCN(CC)CCCn1cnc2c([nH]c3ccc(Cl)cc32)c1=O | inactive: -21.1% | 
76 | CCC(=O)Nc1ccccc1-c1nc2ccccc2n(C(CC)C(=O)Nc2cccc(C(C)=O)c2)c1=O (stereo unspecified) | inactive: -4.56% | 
77 | CCOc1ccc(CCNC(=O)CCc2cn(Cc3ccc(C)cc3)c3ccccc23)cc1 | inactive: 1.17% | 
78 | CCCCNC(=O)CCn1c(=O)c2ccccc2n(Cc2cc(C)ccc2C)c1=O | inactive: 16.4% | 
79 | COc1cccc(C2=NN(C(C)=O)C(c3cn(-c4ccccc4)nc3-c3cccs3)C2)c1 (stereo unspecified) | inactive: 1.48% | 
80 | CC(C)CCNC(=O)N1CCN(S(=O)(=O)c2ccc3c(ccn3C)c2)CC1 | inactive: 1.42% | 
81 | CCOC(=O)c1c(S(=O)(=O)N2CCCC(C(=O)Nc3cc(C)ccc3OC)C2)c(C)n(C)c1C (stereo unspecified) | inactive: -3.95% | 
82 | COc1ccc2[nH]cc(CCNC(=O)Nc3ccc(F)cc3)c2c1 | inactive: -16.3% | 
83 | CCCC(=O)Nc1nnc(SCc2cc(=O)c3cc(C)ccc3[nH]2)s1 | inactive: -24% | 
84 | CC(C)S(=O)(=O)c1oc(-c2ccc(F)cc2)nc1S(=O)(=O)c1ccc(F)cc1 |  | active: 3.16 µM
85 | Cc1cccc(OCC(=O)N(Cc2cccc(Cl)c2)Cc2ccco2)c1C | inactive: -8.41% | 
86 | COc1ccc2cc(-c3cn4c(n3)sc3cc(F)ccc34)c(=O)oc2c1 | inactive: 2.61% | 
87 | COc1cccc(C(=O)NCC(c2ccc(N(C)C)cc2)N2CCOCC2)c1OC (stereo unspecified) | inactive: -2.88% | 
88 | CCN(CC)C(=O)CSc1nnc2[nH]c(=O)cc(C)n12 | inactive: 7.54% | 
89 | CCOC(=O)N1CCc2c(sc(NCc3cccs3)c2C(=O)Nc2cc(OC)ccc2OC)C1 | inactive: 2.62% | 
90 | CC(C)c1ccc(Nc2cc(C(=O)NCc3cccs3)c3ccccc3n2)cc1 | inactive: 14.1% | 
91 | CCOC(=O)c1nnn(C(CC)C(=O)Nc2c(C)cccc2C)c1C(=O)OCC (stereo unspecified) | inactive: -2.16% | 
92 | CCNc1nc(Oc2ccc(OCC(=O)OC)nn2)nc(N2CCOCC2)n1 | inactive: 13.2% | 
93 | CCOc1ccc(-c2cccc(NS(=O)(=O)c3ccc(Cl)s3)c2)nn1 | inactive: 6.86% | 
94 | CCOc1ccc2nc(N3CCCC(C(=O)NCc4ccc(OC)cc4)C3)sc2c1 (stereo unspecified) | inactive: 1.67% | 
95 | Cc1ccc(NC(=O)N2CCN(c3nnc(C)c4c(C)n(-c5ccccc5)nc34)CC2)c(Cl)c1 | inactive: 6.76% | 
96 | COc1ccc(CNC(=O)c2ccc(Sc3ccc(Cl)cc3)c(NC(C)=O)c2)c(OC)c1 | inactive: -14.8% | 
